According to the supplement of paper PMC7826260:
Some of the results follow. The data describe in vitro nicking of single-stranded DNA by Rep domains for 1 h at 37 °C with 3 µM enzyme; only the middle of the 90-letter strands is printed. Uncut reads are compared with the no-enzyme pool on a log2 scale; uncut sequences lie near 0, cut ones below; no hit call is given. Counts are relative to all reads; where an enzyme cuts many sequences, the uncut ones exceed 0.

Experiments:
Experiment in all cases: uncleaved DNA left, log2 of reads against the no-enzyme library (log2 ratio); higher = less cleavage (more negative = more Rep cleavage of the k-mer); sequences stand for … in CTCGTCCG…ACCGGAGA
[1] = tested on: T1, Rep nickase domain of Muscovy duck circovirus
T1 sequence (residues 1-111, tag not shown): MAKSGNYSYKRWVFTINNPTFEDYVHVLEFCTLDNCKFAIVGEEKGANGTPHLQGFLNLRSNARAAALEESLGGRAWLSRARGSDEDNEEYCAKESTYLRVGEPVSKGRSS
Experimental: (§1)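 A pool of 90-nt single-stranded DNAs with seven random bases just before the constant AC of the nick site (name = the seven bases) was cut by 3 µM recombinant His6-SUMO-tagged Rep nickase domain (300 nM DNA, 50 mM HEPES pH 8.0, 50 mM NaCl, 1 mM MnCl2, 1 h, 37 °C, three replicates). Uncut DNA was amplified and sequenced.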

[2] = tested on: T2, Rep nickase domain of banana bunchy top virus
T2 sequence (residues 1-94, tag not shown): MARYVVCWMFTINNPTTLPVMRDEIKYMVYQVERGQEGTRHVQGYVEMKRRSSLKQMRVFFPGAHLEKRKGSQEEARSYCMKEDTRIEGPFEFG
Experimental: as §1

[3] = tested on: T3, Rep nickase domain of cabbage leaf curl virus
T3 sequence (residues 1-116, tag not shown): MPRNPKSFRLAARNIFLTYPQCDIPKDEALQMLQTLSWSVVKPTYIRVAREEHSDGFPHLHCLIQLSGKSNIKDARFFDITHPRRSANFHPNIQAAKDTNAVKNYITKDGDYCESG
Experimental: as §1

[4] = tested on: T4, Rep nickase domain of chickpea chlorotic dwarf virus
T4 sequence (residues 1-124, tag not shown): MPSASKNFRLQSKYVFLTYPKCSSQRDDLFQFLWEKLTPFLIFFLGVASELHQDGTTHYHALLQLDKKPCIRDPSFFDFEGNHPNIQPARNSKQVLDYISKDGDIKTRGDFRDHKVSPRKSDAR
Experimental: as §1

[5] = tested on: T5, Rep nickase domain of faba bean necrotic yellows virus
T5 sequence (residues 1-98, tag not shown): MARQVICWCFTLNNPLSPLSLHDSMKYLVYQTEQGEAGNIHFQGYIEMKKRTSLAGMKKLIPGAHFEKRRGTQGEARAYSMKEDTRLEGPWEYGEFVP
Experimental: as §1

[6] = tested on: T6, Rep nickase domain of maize striate mosaic virus
T6 sequence (residues 1-117, tag not shown): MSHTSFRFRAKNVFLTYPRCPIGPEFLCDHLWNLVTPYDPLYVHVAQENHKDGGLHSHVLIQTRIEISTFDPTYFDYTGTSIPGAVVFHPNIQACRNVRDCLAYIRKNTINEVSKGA
Experimental: as §1

[7] = tested on: T7, Rep nickase domain of porcine circovirus 2
T7 sequence (residues 2-116, tag not shown): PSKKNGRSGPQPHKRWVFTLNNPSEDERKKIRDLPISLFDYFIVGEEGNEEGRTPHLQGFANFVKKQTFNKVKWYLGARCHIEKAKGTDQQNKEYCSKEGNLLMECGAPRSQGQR
Experimental: as §1

[8] = tested on: T8, Rep nickase domain of tomato golden mosaic virus
T8 sequence (residues 1-124, tag not shown): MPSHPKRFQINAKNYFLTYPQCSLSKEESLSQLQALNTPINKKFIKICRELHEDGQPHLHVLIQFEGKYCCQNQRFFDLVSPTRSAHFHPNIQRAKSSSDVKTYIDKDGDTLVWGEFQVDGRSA
Experimental: as §1

[9] = tested on: T9, Rep nickase domain of tomato yellow leaf curl virus
T9 sequence (residues 1-136, tag not shown): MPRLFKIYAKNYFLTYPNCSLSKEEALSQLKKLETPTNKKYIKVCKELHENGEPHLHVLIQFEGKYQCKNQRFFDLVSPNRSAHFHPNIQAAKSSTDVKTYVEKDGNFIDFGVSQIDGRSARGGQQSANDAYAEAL
Experimental: as §1

[10] = tested on: T10, Rep nickase domain of wheat dwarf virus
T10 sequence (residues 1-137, tag not shown): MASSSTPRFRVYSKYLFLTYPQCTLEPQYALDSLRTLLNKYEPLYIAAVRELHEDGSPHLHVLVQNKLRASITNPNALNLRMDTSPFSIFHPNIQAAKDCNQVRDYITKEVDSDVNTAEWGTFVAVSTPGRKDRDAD
Experimental: as §1

Row | Sequence | uncleaved DNA left (log2) [1] | uncleaved DNA left (log2) [2] | uncleaved DNA left (log2) [3] | uncleaved DNA left (log2) [4] | uncleaved DNA left (log2) [5] | uncleaved DNA left (log2) [6] | uncleaved DNA left (log2) [7] | uncleaved DNA left (log2) [8] | uncleaved DNA left (log2) [9] | uncleaved DNA left (log2) [10]
1 | CACACAG | 0.0474 | -0.00066 | -0.683 | -0.463 | 0.0995 | -0.942 | 0.181 | 0.0387 | -0.00936 | 0.0109
2 | CCAAACC | -0.149 | 0.0951 | -0.0507 | -0.862 | 0.106 | -0.611 | -0.127 | -0.0976 | 0.0177 | -0.000744
3 | CATTAAC | -0.01 | -0.0497 | -0.491 | -1.79 | 0.00039 | -1.02 | 0.0748 | -0.0873 | 0.0304 | -0.167
4 | CCTGTTC | 0.00527 | 0.105 | 0.249 | -0.591 | -0.0241 | -0.324 | 0.109 | 0.0782 | 0.0576 | -0.069
5 | TCAACTA | -0.0183 | 0.00745 | -0.136 | -2.25 | 0.0206 | -0.473 | -0.146 | -0.0506 | -0.00984 | 0.0296
6 | CTTACCA | -0.0985 | 0.0426 | -0.262 | -2.53 | -0.116 | -0.396 | -0.733 | -0.195 | 0.0896 | 0.0628
7 | GCGGTAC | 0.077 | 0.0318 | 0.652 | 1.16 | 0.0676 | 1.73 | 0.07 | 0.0751 | 0.133 | 0.004
8 | TGTTAGA | -0.0578 | -0.103 | 0.0178 | -0.14 | 0.0196 | -0.726 | 0.0336 | -0.00417 | -0.006 | 0.0166
9 | TCGTGCA | -0.0416 | -0.0905 | -0.502 | -0.773 | -0.0706 | -1.09 | -0.876 | -0.0189 | -0.0202 | -0.285
10 | ACTGGAA | -0.0847 | -0.091 | -0.126 | 0.442 | 0.0552 | 0.506 | 0.0781 | 0.00474 | -0.103 | -0.0762
11 | ATTGGTA | -0.0192 | -0.0642 | 0.0211 | 0.0072 | 0.111 | 0.0983 | -0.0191 | 0.169 | 0.0453 | 0.205
12 | AGATCTG | 0.0516 | 0.139 | 0.0911 | 0.727 | 0.093 | 1.54 | 0.108 | 0.0341 | -0.038 | 0.176
13 | TCATCAT | -0.227 | 0.111 | -0.0193 | -0.693 | -0.0653 | -0.257 | -0.351 | 0.00225 | 0.116 | 0.0345
14 | TTGCGCT | -0.0415 | -0.176 | -0.826 | -0.0607 | 0.0154 | -0.794 | 0.0888 | -0.108 | 0.0817 | -0.117
15 | TCGACCG | 0.00213 | -0.0527 | -0.303 | -0.48 | 0.0501 | -0.823 | 0.116 | -0.0502 | 0.0151 | 0.0509
16 | CACCCAA | 0.0257 | -0.0695 | -0.0793 | -1.07 | 0.0577 | -0.685 | -0.402 | -0.0425 | -0.12 | 0.0423

Row | Sequence | uncleaved DNA left (log2) [1] | uncleaved DNA left (log2) [2] | uncleaved DNA left (log2) [3] | uncleaved DNA left (log2) [4] | uncleaved DNA left (log2) [5] | uncleaved DNA left (log2) [6] | uncleaved DNA left (log2) [7] | uncleaved DNA left (log2) [8] | uncleaved DNA left (log2) [9] | uncleaved DNA left (log2) [10]
17 | CGGCAAT | -0.0695 | 0.13 | 0.59 | 1.16 | 0.0955 | 1.41 | 0.202 | -0.034 | -0.0474 | 0.13
18 | GTACCAT | -0.0111 | 0.105 | 0.351 | 0.986 | -0.094 | 1.76 | 0.0213 | 0.0677 | 0.105 | 0.164
19 | CACGGGT | 0.0539 | 0.00219 | 0.253 | 0.992 | -0.14 | 1.26 | 0.151 | -0.0258 | -0.117 | -0.0872
20 | GGAGCTA | 0.0811 | 0.154 | 0.715 | 1.58 | 0.0707 | 2.03 | 0.149 | 0.0728 | 0.0766 | 0.319
21 | CCCATCG | -0.098 | -0.0437 | -0.708 | 0.315 | -0.00963 | -0.841 | 0.0968 | -0.309 | 0.0134 | -0.143
22 | TTGCTTG | -0.239 | -0.048 | -0.719 | -0.996 | 0.0911 | -1.1 | 0.00358 | -0.124 | -0.0225 | -0.154
23 | GATTATT | -2.81 | -2.84 | -1.79 | -2.35 | -2.36 | 0.52 | -3.17 | -2.16 | -0.0221 | -0.955
24 | AGTCTGA | -0.0223 | 0.000437 | 0.234 | 0.891 | 0.0534 | 1.46 | -0.000534 | 0.0735 | -0.0317 | 0.011
25 | GAAGAGA | 0.0999 | 0.00999 | 0.632 | 1.14 | 0.0485 | 1.17 | 0.218 | 0.0807 | 0.0585 | 0.194
26 | CCAAACG | 0.00913 | -0.0264 | -0.957 | -0.0597 | -0.013 | -1.03 | 0.0395 | -0.0687 | 0.00229 | -0.191
27 | CCCTAAA | 0.0949 | 0.0695 | 0.174 | -0.2 | 0.0968 | -0.448 | 0.111 | 0.168 | 0.154 | 0.141
28 | ATTGTCC | 0.0464 | -0.0916 | -0.105 | -0.518 | -0.0035 | -0.589 | -0.00949 | 0.0124 | -0.039 | -0.0933
29 | AACTCCT | -2.02 | -1.19 | -0.392 | -3.09 | 0.013 | -0.226 | -3.49 | -0.104 | 0.0217 | -0.114
30 | TCAATAA | -0.0421 | 0.0249 | -0.0392 | -0.199 | -0.012 | -0.601 | 0.0525 | 0.0585 | 0.0288 | -0.00884
31 | TCACTAC | 0.0394 | -0.13 | -0.0632 | -2.08 | 0.102 | -0.546 | -0.105 | -0.0482 | -0.0926 | -0.0869
